# Experimental data: publication PMC4336329 (PLoS ONE, 2015)
# The whole screen tested about 310,000 compounds, of which about 2,200 (0.71%) showed an effect of 50% or more. Effects have a minus sign here. The list shows a part of the results.
# Biological target: human ether-à-go-go-related gene (hERG) potassium channel (human, UniProt Q12809)
# Assay: primary screen, population patch clamp on CHO cells stably expressing hERG
# Chain of human ether-à-go-go-related gene (hERG) potassium channel (Q12809 whole entry, looked up): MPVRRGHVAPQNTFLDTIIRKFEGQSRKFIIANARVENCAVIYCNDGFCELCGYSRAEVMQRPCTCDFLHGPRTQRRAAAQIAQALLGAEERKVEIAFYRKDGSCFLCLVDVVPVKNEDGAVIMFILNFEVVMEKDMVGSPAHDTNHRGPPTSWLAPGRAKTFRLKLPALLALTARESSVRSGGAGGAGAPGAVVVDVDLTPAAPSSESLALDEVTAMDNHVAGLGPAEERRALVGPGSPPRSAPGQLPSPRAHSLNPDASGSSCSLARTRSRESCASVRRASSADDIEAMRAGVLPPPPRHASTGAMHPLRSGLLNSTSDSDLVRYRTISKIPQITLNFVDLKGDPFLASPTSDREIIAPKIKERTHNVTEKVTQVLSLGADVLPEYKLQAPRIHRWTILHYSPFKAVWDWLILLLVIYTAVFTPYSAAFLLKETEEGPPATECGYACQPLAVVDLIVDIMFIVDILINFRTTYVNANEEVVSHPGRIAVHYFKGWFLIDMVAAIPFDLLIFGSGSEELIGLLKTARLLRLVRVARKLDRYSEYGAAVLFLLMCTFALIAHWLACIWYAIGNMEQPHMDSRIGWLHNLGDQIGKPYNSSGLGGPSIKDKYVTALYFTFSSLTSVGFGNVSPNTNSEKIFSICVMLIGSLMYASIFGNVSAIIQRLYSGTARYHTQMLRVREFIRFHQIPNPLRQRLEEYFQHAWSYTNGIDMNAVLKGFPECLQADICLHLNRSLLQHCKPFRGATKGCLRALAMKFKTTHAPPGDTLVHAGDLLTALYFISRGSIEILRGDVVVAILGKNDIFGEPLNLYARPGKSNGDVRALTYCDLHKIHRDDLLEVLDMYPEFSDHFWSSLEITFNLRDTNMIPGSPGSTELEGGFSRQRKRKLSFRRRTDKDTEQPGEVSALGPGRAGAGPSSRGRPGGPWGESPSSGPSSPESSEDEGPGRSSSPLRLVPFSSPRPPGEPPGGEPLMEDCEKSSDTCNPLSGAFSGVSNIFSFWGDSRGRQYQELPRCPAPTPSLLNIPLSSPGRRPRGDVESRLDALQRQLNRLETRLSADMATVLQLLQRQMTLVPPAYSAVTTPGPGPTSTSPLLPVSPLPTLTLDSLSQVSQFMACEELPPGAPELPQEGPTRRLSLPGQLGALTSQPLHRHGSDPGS
row,Compound,"hERG current change (%, negative = inhibition) at 1uM"
1,O=C(CSc1nnc(Cn2c(=O)sc3ccccc32)n1CCc1ccccc1)N1CCCC1,5.76%
2,CC1(C(=O)NC2CCCCCC2)CCC(=O)N1Cc1ccc2c(c1)OCO2 (centres unmarked),0.95%
3,COc1cccc(CNC(=O)CCC2CCCN(C(=O)c3ccc(C)nc3)C2)c1 (centres unmarked),6.84%
4,C=CCN(CC=C)C(=O)CN1C(=O)NC(c2ccccc2)(c2ccccc2)C1=O,6.96%
5,COc1cc(-c2cc(C(=O)NCc3ccco3)c3ccccc3n2)cc(OC)c1OC,6.92%
6,O=C(NCCc1nnc2ccccn12)c1cccs1,8.58%
7,CCN(CC)S(=O)(=O)c1ccc(C)c(NCC(=O)Nc2ccc(C#N)c(Cl)c2)c1,0.676%
8,CCn1c(SCC(=O)N2CCN(c3ccc(Cl)cc3)CC2)nc2ccccc2c1=O,7.22%
9,COc1cc(C(=O)Nc2nc3ccc(C)cc3s2)ccc1OCc1c(C)noc1C,12.6%
10,Cc1ccccc1C(=O)NC1CCN(C(=O)N2CCOCC2)CC1,12.6%
11,CN1CCN(C(c2cccc(C(F)(F)F)c2)c2nnnn2Cc2ccccc2)CC1 (centres unmarked),5.03%
12,O=C(O)Cn1c(SCc2ccccc2)nc2ccccc21,4.11%
13,CC(C(=O)NCc1ccc(F)cc1)c1ccc([N+](=O)[O-])cc1 (centres unmarked),-5.52%
14,c1ccc2oc(-c3ccc(Nc4nc(N5CCCC5)nc(N5CCOCC5)n4)cc3)nc2c1,6.82%
15,COc1ccc(NC(=O)c2ccc(NS(=O)(=O)c3cccc4cccnc34)cc2)cc1,6.15%
16,C#CCOCCOCCOCCNc1nc(N2CCN(C(=O)CCCCCCCCCCNC(=O)Cn3cc(C[C@@H](C)O)nn3)CC2)nc(N2CCN(C(=O)CCCCCCCCCCNC(=O)Cn3cc(C[C@@H](C)O)nn3)CC2)n1,9.21%
17,CCc1ccc(-c2nc(CN3CCC(C(=O)NCc4ccccc4OC)CC3)c(C)o2)cc1,-13.1%
18,CCOC(=O)c1nnn(-c2nonc2N)c1CN(CC)c1ccccc1,6.79%
19,CC(=O)c1c(C)nc2ccccn12,4.91%

row,Compound,"hERG current change (%, negative = inhibition) at 1uM"
1,O=C(CSc1nc(Nc2ccccc2)nc(N2CCOCC2)n1)Nc1ccccc1Cl,2.86%
2,CCCCN1CN(Cc2ccco2)CNC1=S,9.96%
3,O=C(CNC(=O)c1ccc(F)cc1)NCc1ccccn1,1.31%
4,COCCOC(=O)c1c(NC(=O)CN2CCc3ccccc32)sc(C(N)=O)c1C,7.34%
5,CCN(CC)C(=O)C1=C(C)NC(=S)NC1c1cccs1 (centres unmarked),13.7%
6,O=C(c1cc(=O)c2ccccc2o1)N1CCN(c2ccccc2)CC1,7.36%
7,COc1ccc(CC(=O)NCC2CCCN(Cc3ccc(F)cc3F)C2)cc1 (centres unmarked),8.71%
8,O=C(O)COc1ccc2c(c1)CCCC2,17.3%
9,CC(=O)N1CCOc2ccc(S(=O)(=O)N3CCC(C(=O)Nc4ccc(F)cc4)CC3)cc21,7.88%
10,CC(C)CN(CCNC(=O)CC1Oc2ccccc2NC1=O)CC(C)C (centres unmarked),2.25%
11,COC(=O)c1ccc2c(c1)NC(=O)C(N1CCCC1)S2 (centres unmarked),-0.145%
12,COc1cc(C(=O)N=c2sc3ccccc3n2C)cc(OC)c1OC,14.8%
13,CC1=NN(c2ccccc2)C(=O)/C1=C\N(O)c1ccccc1,13.6%
14,COc1cccc(C(=O)NCc2ccccc2OC)c1,7.18%
15,C/C(=N\NC(=O)CCc1ccc(S(=O)(=O)N2CCOCC2)cc1)c1ccccc1Cl,11%
16,COc1ccc(CC(=O)Nc2nc(-c3ccccc3)c(C(C)=O)s2)cc1OC,14.5%
17,COCCCN1Cc2cccc(C(=O)O)c2C1=O,2%
18,CC1CCCN(CCCNC(=O)c2ccc(CS(=O)(=O)Cc3cccc(Cl)c3)o2)C1 (centres unmarked),10.5%
19,O=C(NCCc1c[nH]c2ccccc12)C1Cc2ccccc2CN1C(=O)c1ccco1 (centres unmarked),-35.1%

row,Compound,"hERG current change (%, negative = inhibition) at 1uM"
1,NC(=O)c1ccc(NC(=O)COC(=O)/C=C/c2ccc3c(c2)OCO3)cc1,10.3%
2,COc1cccc(NC(=O)CCN2CCN(c3ccccc3F)CC2)c1,5.32%
3,COc1cc(C2=NOC(C(=O)Nc3c(C)n(C)n(-c4ccccc4)c3=O)C2)cc(OC)c1OC (centres unmarked),-1.14%
4,CC(=O)Nc1ccc(NC(=O)C(C)OC(=O)c2ccc(C)s2)cc1 (centres unmarked),3.72%
5,CCOC(=O)C1CCN(S(=O)(=O)c2ccc3c(c2)NC(=O)C(C)S3)CC1 (centres unmarked),10.5%
6,CCNC(=O)NC(=O)COC(=O)CCCc1nc2ccccc2s1,17.4%
7,CCOC(=O)CCC(=O)N1CCNC(=O)C1,13%
8,C[C@@]12CCC=C[C@H]1[C@H](c1ccc(C(F)(F)F)cc1)N(Cc1ccccc1)C2=O,9.17%
9,CC(=O)c1nnn(-c2ccccc2C#N)c1C,10.3%
10,O=C(c1cccs1)N(c1cccc(Cl)c1)C1C=CS(=O)(=O)C1 (centres unmarked),7.72%
11,Cc1nn(C)c(C)c1NC(=O)CCCSc1nc(-c2ccco2)cc(C(F)(F)F)n1,9.64%
12,Cc1cc(/C=C/C(=O)O)c(C)n1-c1ccc(Cl)cc1,11.1%
13,CC(C)c1ccc(/C=C(\NC(=O)c2ccccc2)C(=O)NCCCn2ccnc2)cc1,-63.2%
14,COc1ccc(-n2cnnc2SCC(=O)Nc2cccnc2Cl)cc1,6.41%
15,Cc1cc(Cl)c(OCCOCCN2CCNCC2)c(Cl)c1.O=C(O)C(=O)O,1.15%
16,S=C(NCCc1ccccn1)Nc1ccc(Cl)cc1,4.57%
17,O=C(Nc1c(-c2ccccc2)nc2ccccn12)c1cccc(F)c1,13.2%
18,COC(=O)CN1C(c2cccc(Cl)c2)=Nc2ccc(Cl)cc2C1c1ccccc1 (centres unmarked),6.57%
